Source: US9643971B2 (GALLEON PHARMACEUTICALS, INC., priority 2013, dated 2017)
Values joined by “and” are separate entries in the source; they are usually repeats but may differ in a detail not shown here. Equal entries are not always repeated. Structures can show the parent of a compound that is named as a salt. The name of at least one read-out is uncertain.

Test system: anesthetized rat
Test: Anesthetized rat spirometry screening assay
Type: in vivo
Settings: for VE Peak (% Inc.): peak minute ventilation increase, urethane-anesthetized rat, i.v. bolus, screening doses 0.1 and 0.3 mg/kg
Excerpt: Effect of Compounds of the Invention on Respiratory Rate (RR), Tidal Volume (VT), and the Product Minute Volume Using an Anesthetized Rat Spirometry Screening Assay
Anesthetized rats provide a quick method of screening compounds for respiratory and cardiovascular activity. In contrast to the conscious rat model, this model offers an experimental set up with less variation in the baseline cardiovascular and respiratory measures. Compounds screened in this assay may be examined in a conscious rat model.
Rats were initially anesthetized with 3% isoflurane (inhaled) and femoral artery and vein cannulas were surgically inserted. Once cannulated, the rats were transitioned to urethane anesthesia (1.5 g/kg; i.v.) and a tracheal cut-down was performed. After placing the tracheal cannula, it was connected to a pneumotachometer to record respiratory airflow from which respiratory rate (RR), tidal volume (VT), and their product minute volume were derived. After the surgical preparation was complete, animals were allowed to stabilize for 30 minutes while respiratory rate, tidal volume, minute volume, blood pressure and heart rate were recorded continuously. Arterial blood gases (ABG) were obtained from arterial blood collected from the femoral artery. ABG measurements were taken before and 6 minutes after vehicle and each dose of compound administered. Compounds being screened were administered via bolus injections through the venous cannula followed by a saline flush (total time of administration is approximately 30 seconds), and the animal was monitored for at least 6 minutes for changes in cardiovascular efforts. Compounds were prepared in formulations identified to ensure optimal solubility. As such, vehicle controls were matched for the formulation of each compound tested. Dosing of the compound being screened was 0.1 and 0.3 mg/kg. The next dose was not administered until all cardiovascular and respiratory measures had returned to baseline levels. The positive control compounds used were N-[4,6-di-(n-propylamino)-[1,3,5]triazin-2-yl]-N,O-dimethyl-hydroxylamine or N-[2,6-di-(n-propylamino)-[1,3]pyrimidin-4-yl]-N,O-dimethyl-hydroxylamine (both administered at the end of each screening experiment (0.3 mg/kg dose) to validate the experiment and also to serve as a measure with which the compound being screened could be compared.
Data were analyzed by collecting cardiovascular and respiratory data in 30 second averages (BINs). Data were plotted 2 minutes before challenge and then 6 minutes after challenge.

Row | SMILES | VE Peak (% Inc.) | AUC MV Inc (2 min) (ratio vs. std*) (2 minute AUC of minute volume increase vs. comparator N-[2,6-di-(n-propylamino)-[1,3]pyrimidin-4-yl]-N,O-dimethyl-hydroxylamine)
1 | CCCNc1nc(NC)nc2c(NCCC)nc(NC)nc12.Cl [Compound 4a, N^2,N^6-Dimethyl-N^4,N^8-di-n-propyl-pyrimido[5,4-d]pyrimidine-2,4,6,8-tetraamine hydrochloride] | 176 % Inc. | 
2 | CCCNc1nc(NCCC)c2nc(NCCC)nc(NCCC)c2n1.Cl [Compound 6a, N^2,N^4,N^6,N^8-Tetra-n-propyl-pyrimido[5,4-d]pyrimidine-2,4,6,8-tetraamine hydrochloride] | 60 % Inc. | 
3 | CCCCNc1nc(NCCC)c2nc(NCCCC)nc(NCCC)c2n1.Cl [Compound 8a, N^2,N^6-Di-n-butyl-N^4,N^8-di-n-propyl-pyrimido[5,4-d]pyrimidine-2,4,6,8-tetraamine hydrochloride] | 44 % Inc. | 
4 | CCCNc1nc(NC(C)C)nc2c(NCCC)nc(NC(C)C)nc12.Cl [Compound 10a, N^2,N^6-Di-i-propyl-N^4,N^8-di-n-propyl-pyrimido[5,4-d]pyrimidine-2,4,6,8-tetraamine hydrochloride] | 11 % Inc. | 
5 | C#CCNc1nc(NC)nc2c(NCCC)nc(NC)nc12.Cl [Compound 13a, N^2,N^6-Dimethyl-N^4-n-propyl-N^8-prop-2-ynyl-pyrimido[5,4-d]pyrimidine-2,4,6,8-tetraamine hydrochloride] | 131 % Inc. | 
6 | CCCNc1nc(N(C)OC)nc2c(NCCC)nc(Cl)nc12.Cl [Compound 17a, N-(6-Chloro-4,8-bis-n-propylamino-pyrimido[5,4-d]pyrimidin-2-yl)-O,N-dimethyl-hydroxylamine hydrochloride] | 2 % Inc. | 
7 | CCCNc1nc(N(C)OC)nc2c(NCCC)nc(N(C)OC)nc12 [Compound 19a, N^2,N^6-Bis-(N-Methoxy(N-methyl)amino)-N^4,N^8-bis-n-propylamino-pyrimido[5,4-d]pyrimidine hydrochloride] | 4 % Inc. | 
8 | CCCNc1nc(N(C)OC)nc2c(NCCC)nc(NC)nc12.Cl [Compound 24a, O,N-Dimethyl-N-(6-methylamino-4,8-bis-n-propylamino-pyrimido[5,4-d]pyrimidin-2-yl)-hydroxylamine hydrochloride] | 123 % Inc. | 
9 | CCCNc1nc(NC)c2nc(NCCC)nc(NC)c2n1.Cl [Compound 27a, N^4,N^8-Dimethyl-N^2,N^6-di-n-propyl-pyrimido[5,4-d]pyrimidine-2,4,6,8-tetraamine hydrochloride] | 122 % Inc. | 
10 | CCCNc1nc(NCCO)nc2c(NCCC)nc(NC)nc12 [Compound 33a, 2-(6-Methylamino-4,8-bis-n-propylamino-pyrimido[5,4-d]pyrimidin-2-yl-amino)-ethanol] | 88 % Inc. | 
11 | CCCNc1nc(NCCOC)nc2c(NCCC)nc(NC)nc12 [Compound 35a, N^2-(2-Methoxyethyl)-N^6-methyl-N^4,N^8-di-n-propyl-pyrimido[5,4-d]pyrimidine-2,4,6,8-tetraamine] | 279 % Inc. | 
12 | CCCNc1nc(NCCOC(C)C)nc2c(NCCC)nc(NC)nc12 [Compound 37a, N^2-(2-Isopropoxy-ethyl)-N^6-methyl-N^4,N^8-di-n-propyl-pyrimido[5,4-d]pyrimidine-2,4,6,8-tetraamine] | 128 % Inc. | 
13 | CCCNc1nc(N2CCCCC2)nc2c(NCCC)nc(NC)nc12 [Compound 43a, N^2-Methyl-N^4,N^8-di-n-propyl-6-(piperidin-1-yl)-pyrimido[5,4-d]pyrimidine-2,4,8-triamine] | 26 % Inc. | 
14 | CCCNc1nc(N2CCC(OC)CC2)nc2c(NCCC)nc(NC)nc12 [Compound 47a, N^2-Methyl-N^4,N^8-di-n-propyl-6-(4-methoxy-piperidin-1-yl)-pyrimido[5,4-d]pyrimidine-2,4,8-triamine] | 4 % Inc. | 
15 | CCCNc1nc(NCc2cccc(Cl)c2C)nc2c(NCCC)nc(NC)nc12 [Compound 49a, N^2-(3-Chloro-2-methyl-benzyl)-N^6-methyl-N^4,N^8-di-n-propyl-pyrimido[5,4-d]pyrimidine-2,4,6,8-tetraamine hydrochloride] | 19 % Inc. | 
16 | CCCNc1nc(NCc2ccc(Cl)c(Cl)c2)nc2c(NCCC)nc(NC)nc12 [Compound 51a, N^2-(3,4-Dichlorobenzyl)-N^6-methyl-N^4,N^8-di-n-propyl-pyrimido[5,4-d]pyrimidine-2,4,6,8-tetraamine] | 20 % Inc. | 
17 | CCCNc1nc(NCc2ccc(F)cc2)nc2c(NCCC)nc(NC)nc12 [Compound 53a, N^2-(4-Fluorobenzyl)-N^6-methyl-N^4,N^8-di-n-propyl-pyrimido[5,4-d]pyrimidine-2,4,6,8-tetraamine] | 15 % Inc. | 
18 | CCCNc1nc(NC)c2nc(Cl)nc(NC)c2n1 [Compound 54, 6-Chloro-N^4,N^8-dimethyl-N^2-n-propyl-pyrimido[5,4-d]pyrimidine-2,4,8-triamine] | 30 % Inc. | 
19 | C=CCN(CC=C)c1nc(NC)c2nc(NCCC)nc(NC)c2n1 [Compound 58a, N^2,N^2-Diallyl-N^4,N^8-dimethyl-N^6-n-propyl-pyrimido[5,4-d]pyrimidine-2,4,6,8-tetraamine] | 32 % Inc. | 
20 | CCCNc1nc(NC)c2nc(N(C)CCO)nc(NC)c2n1 [Compound 60a, 2-[(4,8-Bis-methylamino-6-n-propylamino-pyrimido[5,4-d]pyrimidin-2-yl)-methyl-amino]-ethanol] | 192 % Inc. and 172 % Inc. | 0.46 ratio vs. std and 0.83 ratio vs. std
21 | CCCNc1nc(NC)c2nc(NCCOC(C)C)nc(NC)c2n1 [Compound 62a, N^2-(2-Isopropoxy-ethyl)-N^4,N^8-dimethyl-N^6-n-propyl-pyrimido[5,4-d]pyrimidine-2,4,6,8-tetraamine] | 85 % Inc. | 
22 | CCCNc1nc(NC)c2nc(N(CCOC)CCOC)nc(NC)c2n1 [Compound 68a, N^2,N^2-Bis-(2-methoxyethyl)-N^4,N^8-dimethyl-N^6-n-propyl-pyrimido[5,4-d]pyrimidine-2,4,6,8-tetraamine] | 3 % Inc. | 
23 | CNc1nc(NC)c2nc(NC)nc(NC)c2n1.Cl [Compound 79a, N^2,N^4,N^6,N^8-Tetramethyl-pyrimido[5,4-d]pyrimidine-2,4,6,8-tetraamine hydrochloride] | 3 % Inc. | 
24 | CCNc1nc(NC)c2nc(NCC)nc(NC)c2n1.Cl [Compound 81a, N^2,N^6-Diethyl-N^4,N^8-dimethyl-pyrimido[5,4-d]pyrimidine-2,4,6,8-tetraamine hydrochloride] | 0 % Inc. | 
25 | CCCCNc1nc(NC)c2nc(NCCCC)nc(NC)c2n1.Cl [Compound 83a, N^2,N^6-Di-n-butyl-N^4,N^8-dimethyl-pyrimido[5,4-d]pyrimidine-2,4,6,8-tetraamine hydrochloride] | 95 % Inc. | 
26 | CNc1nc(NCC2CC2)nc2c(NC)nc(NCC3CC3)nc12.Cl [Compound 85a, N^2,N^6-Bis-cyclopropylmethyl-N^4,N^8-dimethyl-pyrimido[5,4-d]pyrimidine-2,4,6,8-tetraamine hydrochloride] | 104 % Inc. | 
27 | CNc1nc(NCC(C)C)nc2c(NC)nc(NCC(C)C)nc12.Cl [Compound 87a, N^2,N^6-Diisobutyl-N^4,N^8-dimethyl-pyrimido[5,4-d]pyrimidine-2,4,6,8-tetraamine hydrochloride] | 18 % Inc. | 
